Assay results as given in the supplement of paper PMC3334620.
Whole data set: some 33,000 sequences, median “E-score (-0.5 to 0.5)” near -0.053, cut for the highest 2% near 0.37. This is one part of the list.

Molecular target: Hap1 (UniProt P0CE41)
Experiment: PBM E-score (8-mer binding enrichment) (E-score (-0.5 to 0.5)); higher = stronger / more preferred TF binding; most listed sequences are background and not binding sites
Details: protein concentration: 200 nM; construct: GST-DNA-binding domain
Method: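 Universal 'all 10-mer' protein binding microarrays (Agilent AMADID 015681) probed with GST-tagged S. cerevisiae TFs (full-length or DBD) made by in vitro transcription/translation (PURExpress), about 100-200 nM. Bound TF was detected with fluorescent anti-GST. Each ungapped 8-mer (which stands for itself and its reverse complement) is scored by the PBM enrichment score (E-score), a modified Wilcoxon-Mann-Whitney statistic from -0.5 to +0.5, computed with the Universal PBM Analysis Suite. Scale: above 0.35 generally sequence-specific binding.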

UniProt P0CE41, sequence (P0CE41 whole entry): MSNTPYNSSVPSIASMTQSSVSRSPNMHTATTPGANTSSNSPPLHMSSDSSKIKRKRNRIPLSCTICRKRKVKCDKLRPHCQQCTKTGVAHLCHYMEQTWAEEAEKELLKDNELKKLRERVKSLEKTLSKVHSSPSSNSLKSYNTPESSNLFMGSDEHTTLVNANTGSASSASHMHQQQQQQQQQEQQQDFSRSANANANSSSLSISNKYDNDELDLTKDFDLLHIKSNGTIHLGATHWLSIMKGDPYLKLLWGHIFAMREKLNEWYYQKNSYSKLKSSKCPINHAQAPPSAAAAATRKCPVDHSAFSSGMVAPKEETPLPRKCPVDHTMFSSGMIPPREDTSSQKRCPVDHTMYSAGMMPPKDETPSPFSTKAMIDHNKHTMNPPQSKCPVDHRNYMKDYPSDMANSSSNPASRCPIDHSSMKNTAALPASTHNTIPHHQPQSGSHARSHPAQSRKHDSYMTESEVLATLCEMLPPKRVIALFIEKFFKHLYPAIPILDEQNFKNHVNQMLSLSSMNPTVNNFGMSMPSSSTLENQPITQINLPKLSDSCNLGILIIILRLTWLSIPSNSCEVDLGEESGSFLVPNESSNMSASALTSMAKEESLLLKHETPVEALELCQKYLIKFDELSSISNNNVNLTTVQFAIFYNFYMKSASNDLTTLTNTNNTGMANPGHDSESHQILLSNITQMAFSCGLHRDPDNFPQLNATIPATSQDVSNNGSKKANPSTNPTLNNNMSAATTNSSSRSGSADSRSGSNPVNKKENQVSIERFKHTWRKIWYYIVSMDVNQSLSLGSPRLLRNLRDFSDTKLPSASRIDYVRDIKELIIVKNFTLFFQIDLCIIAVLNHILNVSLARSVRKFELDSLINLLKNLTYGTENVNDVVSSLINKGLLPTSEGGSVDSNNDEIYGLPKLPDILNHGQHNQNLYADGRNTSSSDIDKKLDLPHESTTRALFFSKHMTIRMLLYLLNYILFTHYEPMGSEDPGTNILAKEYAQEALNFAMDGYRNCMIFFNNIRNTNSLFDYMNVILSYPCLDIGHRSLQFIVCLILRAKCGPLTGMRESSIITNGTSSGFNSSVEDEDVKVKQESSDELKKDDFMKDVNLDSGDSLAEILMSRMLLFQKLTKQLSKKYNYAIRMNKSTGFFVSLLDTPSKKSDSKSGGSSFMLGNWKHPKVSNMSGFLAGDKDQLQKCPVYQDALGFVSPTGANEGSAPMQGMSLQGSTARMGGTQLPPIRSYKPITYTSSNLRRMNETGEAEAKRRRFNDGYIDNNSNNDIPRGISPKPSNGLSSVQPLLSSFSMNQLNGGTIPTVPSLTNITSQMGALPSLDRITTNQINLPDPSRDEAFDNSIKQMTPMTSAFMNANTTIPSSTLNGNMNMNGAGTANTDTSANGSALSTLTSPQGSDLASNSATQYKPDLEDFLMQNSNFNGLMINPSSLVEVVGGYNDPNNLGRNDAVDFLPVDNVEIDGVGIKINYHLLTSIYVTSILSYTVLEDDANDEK

Sequence | PBM E-score
AGTAATAT | 0.0727
CTCAGACC | -0.0944
CACAAAAG | 0.0205
CAGGGCTC | -0.246
TATGAACA | -0.26
GCGAGGCA | 0.191
AAGACGCT | -0.234
ATTTAATA | 0.0927
AAATGGAA | -0.124
GCGCTACC | 0.0675
AAGAAGCA | -0.0174
TTATCAAA | -0.126
ACTCGAAT | -0.258
CGTAGCGA | 0.142
AGATTATA | -0.0616
ATTCTCCG | 0.394
AAACACGA | -0.061
ATTTTGTA | -0.0074
CACACGAG | -0.34
TCAGCGAA | -0.211
CAGCTTCA | -0.112
ATTGCGGA | 0.242
CCGCAAGG | 0.203
CTAACGCA | 0.0325
GAGTCCAC | -0.0537

Sequence | PBM E-score
GATGGCAC | 0.0991
AGTCTGAC | -0.278
AAAACTGA | -0.0492
GGTGGGTA | 0.0278
CGCGACCA | 0.189
CACGATTA | 0.0453
ATCCTTCG | 0.171
CCGCGGGA | 0.341
ACCGTAAG | 0.0557
AAGTCTCG | 0.0946
CAAAAGTA | -0.151
ACTAACTA | -0.121
CCGGAGGA | 0.432
ATGGGCTA | -0.125
AGTTGGGC | -0.098
GGTTTTTA | 0.101
GACCGAAA | 0.385
CTCTCCAA | -0.0734
ATGGCACA | -0.0544
CCGTTGAG | 0.185
TCTTTTAA | -0.115
CAGCCCTC | -0.215
AGGCGGTG | -0.208
ACTAGCCG | 0.0396
CCTCTGCA | -0.167

Sequence | PBM E-score
CTATGGCA | -0.228
TCATGCCA | -0.277
CGCTGAGC | -0.164
CCTACGAC | -0.095
TCGTAAAA | 0.0494
ACACGGCC | 0.231
CCAACCAA | -0.108
TCTCTGCA | -0.107
CCACATCG | 0.0478
CGGGGATA | 0.475
AAGTTGTA | -0.1
AAACAACA | -0.174
CGATTATC | 0.112
ACGCCACC | -0.135
ATAATTTG | 0.0462
TCTGAAGA | -0.275
CGGGGTCC | 0.204
AGATCTCA | -0.158
GCTCGATA | 0.0192
GAGAACGA | -0.0637
AAGGGTCG | 0.0795
GTAGTGAC | -0.0754
CGCATCCA | -0.0122
CATCGACG | -0.0279
AGGCATTA | -0.08

Sequence | PBM E-score
GGCTGTAA | 0.00796
GCTTATGA | -0.0915
GTTGTACA | 0.123
GGCCATGA | -0.0169
GCCGTTGA | 0.0494
ACAATAAA | 0.0219
CCCGTTAA | 0.297
GCTCGAGA | -0.172
ACGACGCT | -0.131
ATAGCTAC | -0.0962
AACATTGG | -0.102
AGACATCA | -0.105
CAGGGTTA | -0.245
ACTGTCAC | -0.11
AGGTGTTA | -0.173
CGACGTCC | 0.0917
ACCGAATC | 0.281
CTGCCACC | -0.0977
ACAAGCGC | 0.11
TGTAGACA | -0.24
CATGATAA | -0.109
CGGCTCAG | 0.173
CTGTTCTA | -0.0728
ACGCATAG | -0.0607
CTCGGAAC | 0.31

Sequence | PBM E-score
ATCGTGTA | -0.113
ACGCATCT | -0.00302
GCATGTCC | 0.133
CAGTCGCA | -0.183
CCTCGTTC | -0.0843
TATTACGA | 0.139
ATATTGAT | 0.0582
AATCCCAA | -0.0614
ATCAAACA | -0.127
CACACCTA | 0.0418
CGGGGCCA | 0.263
ACTGGCAT | -0.286
CAATTATG | 0.0344
ACGCATAT | -0.0964
GGGACCAC | 0.0623
AGGTACTG | -0.0971
ATTAGACA | -0.256
ACGGAGAT | 0.445
AGCCGATG | 0.233
AAATTAAC | 0.0122
TTTCGAAA | -0.207
ATATTATG | 0.0411
GTCGCTAA | -0.0711
ATATGCAA | -0.119
CCAACGAG | -0.194

Sequence | PBM E-score
CTGGTCCC | -0.25
AACTATTA | -0.11
ACTTAATG | -0.0636
AGCGTTCC | -0.162
GATTAATC | 0.354
CTATTGAG | -0.178
CATCCTCG | 0.0457
CCCGGGTC | 0.386
CGGGTAAA | 0.226
AGCGCGGC | 0.045
CTACTCTA | -0.169
CGATTAAA | 0.231
GATCTGAC | -0.116
ATTTGGTA | 0.0304
AAGTGGTA | -0.257
ATTTTTGA | -0.132
AGGGCTCG | 0.114
CCTCACCA | -0.156
AAGAAATG | -0.00404
ACCGAGGG | 0.235
CTCCTCGA | -0.307
ACGGACAC | 0.278
CAACACGG | 0.127
CTTCGCGC | 0.0717
CCAACTAC | -0.0196

Sequence | PBM E-score
CCGCTCAG | -0.0245
CCATCGAG | -0.0288
TATTAATA | 0.0949
AAGACTAT | -0.226
AAGATTCA | -0.037
GACACAGA | 0.0169
CAGCCTAA | -0.354
AAGGGACT | -0.209
ACGTACTC | -0.0119
CCCTATAA | -0.0687
TCCATAAA | -0.138
CGATCCTC | -0.109
CTCTGGTC | 0.0175
AAGGCAGA | -0.147
GTCTCCAC | -0.135
GATCCAGA | 0.0196
CAGCGATA | 0.161
AGATAATC | 0.182
AATGGTTA | -0.0245
CCACGCCG | 0.0416
ATCGAGAC | -0.105
AGCCATAT | -0.138
ATCGTGCA | -0.0776
CAGGTTCA | -0.238
CTGGACTA | -0.15

Sequence | PBM E-score
CCAAGGAG | -0.0607
CGTGTGAA | -0.0927
GCGATCTA | -0.0828
GACACCTA | -0.107
GTTCATAA | -0.165
GTCTGTTA | -0.069
AATCTACC | 0.0844
TACAACAA | -0.0768
CGCTGAGA | -0.0619
TGCGTACA | -0.148
ACTGTCCG | 0.305
CTGTGGTA | -0.112
AACCTTAC | -0.0149
GCCAGAAA | -0.0571
ACACTTCT | -0.119
AGGGCGGC | -0.102
ATTGATAG | -0.186
CCATATAC | -0.123
CAGCAGTC | 0.027
ATATAACA | 0.151
CTATGAAA | -0.119
ACTCTCTC | -0.0452
ATGCGTTG | -0.0581
AGTATACA | -0.126
ACTGTTTG | -0.252

Sequence | PBM E-score
GACTTAAA | 0.035
CTGGGAAC | -0.0849
ACTTTGGA | -0.207
GGTTTAAC | 0.138
GCATCCAC | -0.0499
CAACATAC | 0.0167
GAGTGCGA | -0.0139
CTTAAGCC | 0.193
CCCAACGC | -0.0574
ACTTCACA | -0.209
ACAAGAAT | -0.0632
CAGAGCAG | -0.24
ACGGCCCG | 0.249
AATTGTAC | -0.0831
ATTACGAC | 0.0438
GAGTCCCA | 0.0286
CCCGTTCC | 0.14
AAACTTAA | -0.0507
AGTTAGGG | -0.212
GAGATTCC | 0.211
AATCTTCC | 0.181
ATGTTAGG | -0.203
AGAAGTCT | -0.0864
CACAAACA | 0.0469
CTACATTA | -0.0669

Sequence | PBM E-score
AGAACACC | -0.0387
CCATTAGA | -0.00837
ATCTAATG | -0.0892
ACACAAGA | -0.0983
AGACCGGG | 0.265
CCCGGGCA | 0.376
CTCGAATC | -0.152
CTACCTCA | -0.115
AGCGCTAG | -0.206
CATGTCCG | 0.372
ACGCAAGG | -0.233
CACACGCG | -0.0361
CCGGACGA | 0.431
CCTTCAGA | -0.298
ATAACAGA | -0.0777
ACCGACTG | 0.203
AACAAAAC | -0.0263
AAATCCTT | 0.0613
AGGGTTGA | -0.101
CACCGGTC | 0.227
CAGTAGGA | -0.142
TACCGGCA | 0.353
CGACACTA | 0.085
AGAACAAC | -0.0401
CATTTATA | -0.145

Sequence | PBM E-score
GCCGTGGA | 0.182
AAGCCCTT | -0.221
CATACCCA | -0.133
AGGGGACG | -0.0826
CTGGTTCA | -0.167
GTGTACGA | 0.0174
ACAAGCAC | -0.103
AAAAAGTG | -0.17
CCGGTCGC | 0.161
GCCCAGAC | -0.00848
CCTGAAAA | -0.196
ATAGTGAT | -0.146
AATAAGTA | -0.104
GCGCCCTA | -0.0405
AGATTTGA | -0.138
AGTCTTGC | -0.207
ATCTTTCA | 0.0359
GGGGTTCA | -0.11
AGTCCAAC | -0.176
TAGAAAGA | -0.185
GACGCAGC | -0.183
AATAGGAG | -0.198
AATTGAAG | -0.0322
AGAAGCGC | 0.105
ACTAGGAG | -0.152

Sequence | PBM E-score
ACTCTTAC | -0.109
AAGTGTAG | -0.247
CGGTCCGA | 0.435
ATTTCAAA | -0.104
CACGCGCA | -0.0512
AATAGCTG | -0.15
GGTGGGAA | -0.0333
CCTCCGCC | 0.107
ATCCTTGA | 0.0127
CGAGATGC | -0.0846
ACCCTCAA | -0.134
GGGACCCA | -0.154
AATTTCCG | 0.437
ATATCAGG | -0.0679
CGCCATGA | -0.0975
TACTGTAA | -0.0971
ATTGTCTC | -0.0388
TGAAACCA | 0.0905
AGTAGGCG | -0.0778
CTATAGTA | 0.0683
CAACTCGA | -0.114
ACGACTGA | -0.119
CGGTGGAG | 0.184
CTCAAGCC | -0.0348
GAGAGAGC | -0.0317

Sequence | PBM E-score
CGGCCGAA | 0.449
AGCCTTAT | -0.0107
GGGATCAA | 0.0981
GACGGACA | 0.325
AGGCCGTG | 0.0809
AAGTAATT | 0.00442
ATTATTTC | 0.156
CCTCCCAG | -0.196
CACAACGC | 0.0118
GAATGCGA | 0.0832
CTATCCAG | -0.118
AGTAGCTA | -0.0452
AGCATACA | -0.0454
GGTAGCAC | 0.00404
GTTTCGGA | 0.389
CATGCGCC | 0.0342
CCCAGCGC | 0.0945
AATTGCAA | -0.0885
ATGACGTC | 0.0476
AATTGATG | 0.0475
AACAGGTT | -0.0864
AGTTCATG | 0.024
CAATCAGC | -0.105
AGTTGATC | -0.124
ACTGCCAA | -0.0893

Sequence | PBM E-score
AGGAGAAT | -0.149
ACGAACGA | -0.146
AGAATATC | 0.155
AAGGTCTC | -0.0372
AACCCCTG | -0.0923
TTCGCAAA | 0.17
GCAACGAA | -0.167
ATCTAAAC | 0.0421
AGACGTGA | -0.14
CGTCATGC | -0.119
ATCAATGG | -0.19
CCGATAGG | 0.438
AACTGAGC | -0.0463
AGACATGG | -0.0875
GTTTGTGA | -0.103
GCGCATTA | 0.134
AGATCTTA | -0.212
CTTGCGCA | -0.0398
GTTACTCA | -0.0216
